In PubChem BioAssay (NCI):
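Compound exposure: 48 hours, 5 concentrations, 96-well plates. GI50 marks 50% less growth. The concentration for full growth arrest is given as TGI.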

Each compound was assayed on NCI-H322M lung (assay: NCI-60 cell line screen, 48 h).

Row | SMILES | GI50 [µM] | TGI [µM]
1 | CCCCN=C(N)c1ccc(OCCSCCOc2ccc(C(N)=NCCCC)cc2)cc1 | 11.6 | > 100
2 | c1ccc(C2=NNC3c4ccccc4-c4ccccc4N3C2)cc1 (stereo not drawn) | – | > 100
3 | CN(C)CCn1c(=O)c2ccc(NCCNCCO)c3c(=O)c4ccccc4n(c1=O)c23 | – | 11.2
4 | COc1ccc(OC)c(/C=C/C(=O)N/N=C/c2ccc(Cl)cc2)c1 | 0.511 | > 100
5 | O=C1c2ccccc2-c2c1c1ccccc1c(=O)n2Cc1ccccc1 | – | > 100
6 | CC(=O)C(C(=O)c1ccc(C)cc1)[C@@H]1OC(C)(C)O[C@@H]1[C@H]1COC(C)(C)O1 (stereo partly drawn) | – | 65.7
7 | O=C(c1cccc(O)c1O)c1cn(Cc2ccc(F)cc2)c2cccc(O)c12 | 7.15 | 23.5
8 | CC1CN1CC(O)C(O)CN1CC1C (stereo not drawn) | 8.22 | 51.7
9 | O=C1c2ccccc2C(=O)C2NC(CCCCCSSCCCCCC3=NC4C(=O)c5ccccc5C(=O)C4N3)=NC12 (stereo not drawn) | – | > 100
10 | O=C(Nc1ccc(Cl)cc1)c1cc(S(=O)(=O)Nc2n[nH]c(Nc3ccc4ccccc4c3)n2)c(SSc2cc(Cl)c(C(=O)Nc3ccc(Cl)cc3)cc2S(=O)(=O)Nc2n[nH]c(Nc3ccc4ccccc4c3)n2)cc1Cl | – | 76.9
11 | CC1=C2C(=O)O[C@@H](c3ccoc3)[C@]2(C)CCC1 | – | > 100
12 | O=c1cccccc1NCCCNc1cccccc1=O | – | > 100
13 | Cc1cc(C)c(C(=O)CC(=O)c2cccnc2)c(C)c1 | 9.02 | > 100
14 | Cc1cccc2nc(-c3ccccc3)cc(=O)n12 | – | > 100
15 | CCN1C(=O)CNc2ncc(-c3ccc(-c4ncn[nH]4)nc3C)nc21 | 0.225 | 7.99
16 | COC(=O)/C(C)=N/NC(=S)SC | – | > 100
17 | CC1(C)C2CC(O)C1(C)CC2=O (stereo not drawn) | – | > 100
18 | C=CCCCCCCCCC(=O)NS(=O)(=O)c1ccccc1 | – | > 100
19 | CCOC(=O)c1c(CN2CCN(c3ccccc3)CC2)n(-c2ccccc2)c2cc(Br)c(O)cc12 | 23.4 | 69.9
20 | CN1CCCC2C(c3ccccc3)C(C3=NCCCC3)C(c3ccccc3)CC21 (stereo not drawn) | – | > 100
21 | CC(=O)OC1CC(O)C23COC(O)C1(C)C2CC(O)C1(C)C3C(=O)C(O)C2(C)C(c3ccoc3)CC3OC321 (stereo not drawn) | 20.7 | > 100
22 | COC(=O)c1ccccc1/C=C1\Cc2c(C)c3c(c(C)c2C1=O)CCC3 | – | > 100
23 | Cc1c(N=Nc2ccccc2)c(-c2ccccc2)n(C2OC(CO)C(O)C(O)C2O)c(=S)c1C#N (stereo not drawn) | – | 16.8
24 | CC(C)(C)OC(=O)Cc1ccc2c(ccn2Cc2ccccc2)c1 | – | > 100

Row | SMILES | GI50 [µM] | TGI [µM]
25 | Cc1cn2c(/C=C3/C(=O)N(C)c4ccccc43)c(C)nc2s1 | 63.7 | > 100
26 | COc1ccc2c(c1)CCC1C3(CCCC21C)OCCO3 (stereo not drawn) | – | 59.3
27 | CCC1CN2CCc3cc(OC)c(OC)cc3C2CC1CC1c2cc(OC)c(OC)cc2CCN1C(=O)C(N)Cc1ccccc1 (stereo not drawn) | – | 10.1
28 | O=C(CC(O)(C(F)(F)F)C(F)(F)F)C(c1ccccc1)C(O)(C(F)(F)F)C(F)(F)F (stereo not drawn) | – | > 100
29 | Nc1cc(Cl)cc2cc(Cl)cnc12 | – | > 100
30 | COC(=O)Nc1nc2ccc(Oc3ccc(NC(=O)Nc4ccccc4)cc3)cc2[nH]1 | 0.812 | > 15.5
31 | COc1ccc(C2C(C(=O)O)=C(CO)Oc3cc4c(cc32)OCO4)cc1 (stereo not drawn) | – | > 100
32 | O=S(=O)(O)CCSSCCS(=O)(=O)O | – | > 1000
33 | CCOC(=O)C(Cc1ccc2ccccc2c1)(Cc1ccc2ccccc2c1)C(C)=O | – | > 10
34 | O=C(O)CC1OCC=C2CN3CCC45c6ccccc6NC4C1C2CC35 (stereo not drawn) | – | > 100
35 | O=C(CCl)Nc1ccc(Cl)cc1 | 9.54 | 24
36 | CC(=O)OC1=NN=C2COC(c3ccccc3OC(C)=O)=NN2C1 | – | > 50
37 | C=C(C)C1CC=C(C)C(=O)C1 (stereo not drawn) | – | > 100
38 | Cn1c(-c2cccs2)cc(-c2cccs2)c1-c1cccs1 | – | > 100
39 | CC12CCCC(C(=O)O)(C1)[C@H](C(C)(C)C(=O)O)CC2 (stereo partly drawn) | – | > 100
40 | NC(=S)N/N=C/c1ccc(OC(=O)COc2ccc(Cl)cc2)cn1 | 8.49 | > 100
41 | CN(C)P(=O)(/C(N)=N/Nc1ccc([N+](=O)[O-])cc1)N(C)C | – | > 100
42 | COc1cc2c(/C=C3/C(=O)Nc4ccc(O)cc43)c(Cl)n(Cc3ccccc3)c2cc1C | – | 31.9
43 | CCOC(=O)c1cc(/C(=N\O)c2cc(OC)c(OC)c(OC)c2)n2cc(C)cc(C)c12 | 4.32 | > 100
44 | CCCCCCCCCCCCCC1CCC(CC)N1 (stereo not drawn) | – | 21.7
45 | COc1cc(C2C3=C(COC3=O)OC(C)(C)Oc3cc4c(cc32)OCO4)cc(OC)c1O (stereo not drawn) | – | > 100
46 | CN(C)CCNC(=O)c1cccc(C(=O)Nc2ccccc2)c1[N+](=O)[O-] | – | > 100
47 | CSC1=N/C(=C\c2ccc(C)cc2)C(=O)N1 | – | > 100
48 | COc1cc(C2=NN(C(C)=O)C(c3ccc(OC(C)=O)cc3OC(C)=O)O2)c(OC(C)=O)c2ccccc12 (stereo not drawn) | 0.546 | 35.5

Row | SMILES | GI50 [µM] | TGI [µM]
49 | O=C(CSc1ncccn1)N/N=C/c1ccccc1OCc1ccccc1 | – | > 100
50 | O=C1Cc2c([nH]c3ccc(Br)cc23)-c2cc(Br)ccc2N1 | – | > 100
51 | Cc1cccc(N/C(=C(/C(Cl)=C(Cl)Cl)[N+](=O)[O-])n2nnc3ccccc32)c1 | – | 64.6
52 | CC(=O)OC1Oc2ccccc2-c2oc(=O)c(-c3cc4ccc(N(C)C)cc4oc3=O)cc21 (stereo not drawn) | 13.6 | 41
53 | O=[N+]([O-])/C(C(Cl)=C(Cl)Cl)=C1\Nc2ccc([N+](=O)[O-])cc2N1 | – | > 100
54 | O=C1CC(Br)c2c(Br)sc(Br)c21 (stereo not drawn) | – | > 100
55 | O=C(O)CN(c1ccccc1)S(=O)(=O)c1ccccc1[N+](=O)[O-] | – | > 100
56 | CCOC(=O)NC(=O)c1cn(CCOCCOC(=O)NCCCCCCNC(=O)OCCOCCn2cc(C(=O)NC(=O)OCC)c(=O)[nH]c2=O)c(=O)[nH]c1=O | – | > 100
57 | CCS(=O)(=O)c1ccc(OC)c(Nc2ncc(-c3cccc(OC)c3)o2)c1 | 11.1 | > 25
58 | CCN(CC)c1ccc(C(=N)c2ccc(N(CC)CC)cc2)cc1 | 2.09 | 9.32
59 | COc1cc2c(cc1C)NC(=O)/C2=C/c1cccnc1 | – | 41
60 | C/C(Cl)=N/OC(=O)Nc1ccc(F)c([N+](=O)[O-])c1 | – | 49.4
61 | CC(C)c1ccc(C(=O)Nc2sc3c(c2C(N)=O)CCC(=O)C3)cc1 | 3 | 18.5
62 | NC(N)=NCCCn1c2c(c3ccccc3c1=O)C(=O)c1ccccc1-2 | 27.5 | 97.3
63 | Cc1ccc2c(c1)C(=O)C1(C2)Cc2c(C)cccc2C1=O (stereo not drawn) | – | > 100
64 | N#Cc1ccc(NC(=NCC(=O)O)Nc2cccc3ccccc23)cc1 | – | > 10
65 | C=CC(C)(C)n1cc(C2=C3OC(=O)C(c4cn(C(C)(C)C=C)c5ccccc45)=C3OC2=O)c2ccccc21 | – | > 100
66 | CN(C)CCCn1c2c(c3ccccc3c1=O)C(=O)c1ccccc1-2 | 2.87 | 7.82
67 | C[N+](C)(C)CC1CCCC(C[N+](C)(C)C)C1=O (stereo not drawn) | – | 32
68 | CCN(CCCl)c1cc(CN(C)C)cc(NC(=O)c2ccc(C(=O)Nc3cc(CN(C)C)cc(N(CC)CCCl)c3)cc2)c1 | – | 4.26
69 | Cn1cc(C(=O)c2ccccc2)ccc1=O | – | > 100
70 | NCCCC[C@@H]1NC(=O)[C@H]2CCCN2C(=O)[C@H](Cc2ccccc2)NC(=O)[C@H](Cc2ccccc2)CNC1=O | > 100 | > 100
71 | COc1cc2oc(-c3ccc(O)cc3)cc(=O)c2c(OC)c1OC | – | > 100
72 | Cc1ccc2nc3c(C(=O)NCCN(C)C)cccc3nc2c1 | – | 21.1
